Laboratory results published in the RNAGym collection of RNA variant scans (doi:10.1101/gad.245936.114).
This sample is rich in variants without activity.

B1: tRNA (parent)
chain: CUCUCGGUAGCCAAGUUGGUUUAAGGCGCAAGACUUUAAUUUAUCACUACGAAAUCUUGAGAUCGGGCGUUCGACUCGCCCCCGGGAGAUUUUUUCCUCGAGCAA

Variants of: B1
Test: nonsense suppression (GFP-seq) (ratio to wild type); higher = more function; SUP4oc tRNA, yeast GFP reporter sort-seq
In short: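 Yeast were grown in raffinose/galactose medium with 80 mg/L adenine, each strain bearing a genome-integrated ochre-suppressor tRNA variant from a ~3% random-mutation library, a galactose-driven GFP ochre reporter, and RFP. After sorting into GFP/RFP bins, every bin was sequenced on an Illumina platform at phred ≥30. The GFPSEQ value, a measure of nonsense suppression, is the weighted bin median GFP/RFP relative to the unmutated parent tRNA, using each variant's estimated cell share per bin as the weight. Only variants with ≥100 reads and ≥30 cells were included.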

Nonsense suppression, ≤ 0.026:
CUCUGGGUAGCCAGGUUAGUUUAAGGCGCAUGACUUUAAUUUAUCACUACGAAAUCUUGAGAUCGGGCGUUCGACUCGCCCCCGGGAGAUUUUUUCCUCGAGCAA [C5G A14G G18A A31U]
CUCUGGGUAGCCAGGUUGGUUUAAGGCGCAAGACUUUAAUUUAUCACUACGAAAUCUUGAGAUCGGGCGUUCUACUCGCCCCCGGGAGAUUUUUUCCUCGAGCAA [C5G A14G G73U]
CUCUGGGUAGCCAUGUUGGUUUAAGGCGCAAGACUUUAAUUUAUCACUACGAAAUCUUGAGAUCGGGCGUUCGACUCGCCCCCGGGAGAUUUUUUCCUCGAGCAA [C5G A14U]
CUCUGGGUAGCCAUGUUGGUUUAAGGCGCAAGACUUUAAUUUAUCACUACGAAAUCUUGAGAUCGGGCCUUCGACUCGCCCCCGGGAGAUUUUUUCCUCGAGCAA [C5G A14U G69C]
CUCUGGGUAGCCAUGUUGGUUUAAGGCGCAAGACUUUAAUUUAUCACUACGAAAUCUUGAGAUCGGGCGUUCGACUCGCCCCCGUGAGAUUUUUUCCUCGAGCAA [C5G A14U G85U]
CUCUGGGUAGCCAAGUUGGUUUCAGGCGCAAGACUUUAAUUUAUCACUACGAAAUCUUGACAUCGGGCGUUCGACUCGCCCCCGGGAGAUUUUUUCCUCGAGCAA [C5G A23C G61C]
CUCUGGGUAGCCAAGUUGGUUUGAGGCGCAAGUCUUUAAUUUAUCACUACGAAAUCUUGAGAUCGGGCGUUCGACUCGCCCCCGGGAGAUUUUUUCCUCGAGCAA [C5G A23G A33U]
CUCUGGGUAGCCAAGUUGGUUUUAGGCGCAAGACUUUAAUUUAUCACUACGAAAUCUUGAGAUCGGUCGUUCGACUCGCCCCCGGGAGAUUUUUUCCUCGAGCAA [C5G A23U G67U]
CUCUGGGUAGCCAAGUUGGUUUAAGGCGCGAGACUUUAAUUUAUCACUACGAAAUCUUGAGAUCGGGCGUUCGACUCCCCCCCGGGAGAUUUUUUCCUCGAGCAA [C5G A30G G78C]
CUCUGGGUAGCCAAGUUGGUUUAAGGCGCUAGACUUUAAUUUAUCACUACGAAAUCUUGAGAUCGGGCGUUCGACUCGCCCCCGGGAGAUUUUUUCCUCGAGCAA [C5G A30U]
CUCUGGGUAGCCAAGUUGGUUUAAGGCGCAGGACUUUAAUUUAUCACUACGAAAUCUUGAGAUCGGGCGUUCAACUCGCCCCCGGGAGAUUUUUUCCUCGAGCAA [C5G A31G G73A]
CUCUGGGUAGCCAAGUUGGUUUAAGGCGCAAGGCUUUAAUUUAUCACUACGAAAUCUUGAGAUCGGGCGUUCGACUCGCCCCCGGGAGAUUUUUUCCUCGAGCAA [C5G A33G]
CUCUGGGUAGCCAAGUUGGUUUAAGGCGCAAGGCUUUAAUUUAUCACUACGAAAUCUUGAGAUCGGGCGUUCGACUCGCCCACGGGAGAUUUUUUCCUCGAGCAA [C5G A33G C82A]
CUCUGGGUAGCCAAGUUGGUUUAAGGCGCAAGUCGUUAAUUUAUCACUACGAAAUCUUGAGAUCGGGCGUUCGACUCGCCCCCGGGAGAUUUUUUCCUCGAGCAA [C5G A33U U35G]
CUCUGGGUAGCCAAGUUGGUUUAAGGCGCAAGUCUUUAAUUUAUCACUACGAAAUCGUGAGAUCGGGCGUUCGACUUGCCCCCGGGAGAUUUUUUCCUCGAGCAA [C5G A33U U57G C77U]
CUCUGGGUAGCCAAGUUGGUUUAAGGCGCAAGUCUUUAAUUUAUCACUACGAAAUCUUGAGAGCGGGCGUUCGACUCGCCCCCGGGAGAUUUUUUCCUCGAGCAA [C5G A33U U63G]
CUCUGGGUAGCCAAGUUGGUUUAAGGCGCAAGACUUUAAUUUAUCACUACGAAGUCUUGAGAUCGGGCGUUCGACUCGCCCCCGGGAGAUUUUUUCCUCGAGCAA [C5G A54G]
CUCUGGGUAGCCAAGUUGGUUUAAGGCGCAAGACUUUAAUUUAUCACUACGAAUUCUUGAGAUCGGGCGUUCGACUCGCCCCCGGGAGAUUUUUUCCUCGAGCAA [C5G A54U]
CUCUGGGUAGCCAAGUUGGUUUAAGGCGCAAGACUUUAAUUUAUCACUACGAAAUCUUGAGCUAGGGCGUUCGACUCGCCCCCGGGAGAUUUUUUCCUCGAGCAA [C5G A62C C64A]
CUCUGGGUAGCCAAGUUGGUUUAAGGCGCAAGACUUUAAUUUAUCACUACGAAAUCUUGAGGUCGGGCGUUCGACUCGCCCCCGGGAGAUUUUUUCCUCGAGCAA [C5G A62G]
CUCUGGGUAGCCAAGUUGGUUUAAGGCGCAAGACUUUAAUUUAUCACUACGAAAUCUUGAGAUCGGGCGUUCGGCUCGCCCCCGGGAGAUUUUUUCCUCGAGCAA [C5G A74G]
CUCUGGGUAGCCAAGUUGGUUUAAGGCGCAAGACUUUAAUUUAUCACUACGAAAUCUUGAGAUCGGGCGUUCGACUCGCCCCCGGGAGGUUUUUUCCUCGAGCAA [C5G A89G]
CUCUGGGUAGACAAGUUGGUUUAAGGCGCAAGACUUUAAUUUAUCACUACGAAAUCUUGAGAUCGGGCGUUCGACUCGCCCCCGGGAGAUUUUUUCCUCGAGCAA [C5G C11A]
CUCUGGGUAGACAAGUUGGUUUAAGGCGCGAGACUUUAAUUUAUCACUACGAAAUCUUGAGAUCGGGCGUUCGACUCGCCCCCGGGAGAUUUUUUCCUCGAGCAA [C5G C11A A30G]
CUCUGGGUAGACAAGAUGGUUUAAGGCGCAAGACUUUAAUUUAUCACUACGAAAUCUUGCGGUCGGGCCUUCGACUCGCCCCCGGGAGAUUUUUUCCUCGAGCAA [C5G C11A U16A A60C A62G G69C]
CUCUGGGUAGGCAAGUUGGUUUUAGGCUCAAGAAUUUAAUUUAUCACUACGAAAUCUUGAGAUCGGGCGUUCGACUCGCCCCCGGGAGAUUUUUUCCUCGAGCAA [C5G C11G A23U G28U C34A]
CUCUGGGUAGUCAAGUUGGUUUAAGGCGCAAGACUUUAAUUUAUCACUACGAAAUCUUGAGAUCGGGCGUUCGACUCGCCCCCGGGAGAUUUUUUCCUCGAGCAA [C5G C11U]
CUCUGGGUAGCAAAGUUGGUUUAAGGCGUAAGACUUUAAUUUAUCACUACGAAAUCUUGAGAUCGGGCGUUCGACUCGCCCCCGGGAGAUUUUUUCCUCGAGCAA [C5G C12A C29U]
CUCUGGGUAGCGAAGUUGGUGUAAGGCGCAAGACUUUAAUUUAUCACUACGAAAUCUUGAGCUCGGGCGUUCGACUCGCCCCCGGGAGAUUUUUUCCUCGAGCAA [C5G C12G U21G A62C]
CUCUGGGUAGCUAAGUUGGUUUAAGGCGCGAGACUUUAAUUUAUCACUACGAAAUCUUGAGAUCGGGCGUUCGACUCGCCCCCGGGAGAUUUUUUCCUCGAGCAA [C5G C12U A30G]
CUCUGGGUAGCUAAGUUGCUUUAAGGCGCAAGACUUUAAUUUAUCACUACGAAAUCUUGAGAUCGGGCGUUCGACUCGCCCCCGGGAGAUUUUUUCCUCGAGCAA [C5G C12U G19C]
CUCUGGGUAGCCAAGUUGGUUUAAGGGGCAAGACUUUAAUUUAUCACUACGAAAUCUUGAGAUCGGGCGUUCGACUCGCCCCCGGGAGAUUUUUUCCUCGAGCAA [C5G C27G]
CUCUGGGUAGCCAAGUUGGUUUAAGGUGCAAGACUUUAAUUUAUCACUACGAAAUCUUGAGAUCGGGCGUUCGAUUCGCCCCCGGGAGAUUUUUUCCUCGAGCAA [C5G C27U C75U]
CUCUGGGUAGCCAAGUUGGUUUAAGGCGUAAGACUUUAAUUUAUCACUACGAAAACGUGAGAUCGGGCGUUCGACUCGCCCCCGGGCGAUUUUUUCCUCGAGCAA [C5G C29U U55A U57G A87C]
CUCUGGGUAGCCAAGUUGGUUUAAGGCGCAAGAUUUUAAUUUAUCACUACGAAAUCUUGAGUUCGGGCGUUCGACUCGCCCCCGGGAGAUUUUUUCCUCGAGCAA [C5G C34U A62U]
CUCUGGGUAGCCAAGUUGGUUUAAGGCGCAAGAUUUUAAUUUAUCACUACGAAAUCUUGAGAUCGGGCGUUCGUCUAGCCCCCGGGAGAUUUUUUCCUCGAGCAA [C5G C34U A74U C77A]
CUCUGGGUAGCCAAGUUGGUUUAAGGCGCAAGACUUUAAUUUAUCACUACGAAAUAUUGAGAUCGGGCGUUCGACUCGCCCCCGGGAGAUUUUUUCCUCGAGCAA [C5G C56A]
CUCUGGGUAGCCAAGUUGGUUUAAGGCGCAAGACUUUAAUUUAUCACUACGAAAUGUUGAGAUCGGGCGUUCGACUCGCCCACGGGAGAUUUUUUCCUCGAGCAA [C5G C56G C82A]
CUCUGGGUAGCCAAGUUGGUUUAAGGCGCAAGACUUUAAUUUAUCACUACGAAAUGUUGAGAUCGGGCUGUCGACUCGCCCCCGGGAGAUUUUUUCCUCGAGCAA [C5G C56G G69U U70G]
CUCUGGGUAGCCAAGUUGGUUUAAGGCGCAAGACUUUAAUUUAUCACUACGAAAUCUUGAGAUAGGGCGUUCGACUCGCCCCCGGGAGAUUUUUUCCUCGAGCAA [C5G C64A]
CUCUGGGUAGCCAAGUUGGUUUAAGGCGCAAGACUUUAAUUUAUCACUACGAAAUCUUGAGAUCGGGCGUUCGACUAGCCCCCGGGAGAUUUUUUCCUCGAGCAA [C5G C77A]
CUCUGGGUAGCCAAGUUGGUUUAAGGCGCAAGACUUUAAUUUAUCACUACGAAAUCUUGAGAUCGGGCGUUCGACUCGUCCCCGGGAGAUUUUUUCCUCGAGCAA [C5G C79U]
CUCUGGGUAGCCAAGUUGGUUUAAGGCGCAAGACUUUAAUUUAUCACUACGAAAUCUUGAGAUCGGGCGUUCGACUCGCACCCGGGAGAUUUUUUCCUCGAGCAA [C5G C80A]
CUCUGGGUAGCCAAGUUGGUUUAAGGCGCAAGACUUUAAUUUAUCACUACGAAAUCUUGAGAUCGGGCGUUCGACUCGCCACCGGGAGAUUUUUUCCUCGAGCAA [C5G C81A]
CUCUGAGUAGCCUAGUUGGUUUAAGGCGCAAGACUUUAAUUUAUCACUACGAAAUAAUGAUAUCGGGCGUUCGACUCGCCCCCGGGAGAUUUUUUCCUCGAGCAA [C5G G6A A13U C56A U57A G61U]
CUCUGGAUAGCCAAGUGGGUUUAAGGCGCAAGACUUUAAUUUAUCACUACGAAAUCUUGAGAUCGGGCGUUUGACUCGCCCCCGGGAGAUUUUUUCCUCGAGCAA [C5G G7A U17G C72U]
CUCUGGUUAGCCAAGUUGGUUUAAGGCGCAAGACUUUAAUUUAUCACUACGAACUCUUGAGAUCGGGCGUUCGACUCGCCCCCGGGAGAUUUUUUCCUCGAGCAA [C5G G7U A54C]
CUCUGGGUAUCCAAGUUGGUUUAAGGCGCAAGACUUUAAUUUAUCACUACGAAAUCUUGAGAUCGGGCGUUCGACUCGCCCCCGGGAGAUUUUUUCCUCGAGCAA [C5G G10U]
CUCUGGGUAGCCAAAUUGGUUUAAGGCGCAAGACUUUAAUUUAUCACUACGAAAUCUUGAGAUCGGGCGUUCGACUCGCCUCCGGGAGAUUUUUUCCUCGAGCAA [C5G G15A C81U]
CUCUGGGUAGCCAAAUUGGUUUAAGGCGCAAGACUUUAAUUUAUCACUACGAAAUCUUGAGAUCGGACGUUCGACUCGCCCCCGGGAGAUUUUUUCCUCGAGCAA [C5G G15A G67A]
CUCUGGGUAGCCAACUUGGUUUAAGGCGCAAGACUUUAAUUUAUCACUACGAAAUCUUGAAAUCGGGCGUUCGACUCGCCCCUGGGAGAUUUUUUCCUCGAGCAA [C5G G15C G61A C83U]
CUCUGGGUAGCCAAUUUGGUUUAAGGCGCAAGACUUUAAUUUAUCACUACGAAAUCUUGAGAUCGGGCGUUCGACUCGCCCCCGGGAGAUUUUUUCCUCGAGCAA [C5G G15U]
CUCUGGGUAGCCAAGUUGAUUUAAGGCGCAAGACUUUAAUUUAUCACUACGAACUCUUGAGAUCGGGCGUUCGACUCGCCCCCGGGAGAUUUUUUCCUCGAGCAA [C5G G19A A54C]
CUCUGGGUAGCCAAGUUGCUUUAAGGCGCAAGACUUUAAUUUAUCACUACGAAAUCUUGAGAUCGGGCGUUCGACUCGCCCCCGGGGGAUUUUUUCCUCGAGCAA [C5G G19C A87G]
